Hit rate of the full screen: of about 390,000 compounds, about 930 (0.24%) were called active. This list was built around the results that the source calls inconclusive (neither active nor inactive); the mix of calls is not that of the screen. The call rests on the fitted dose curve; in most records, active means well fitted activation curve with a large enough effect; inconclusive means small, poorly fitted or top-dose-only effect; inactive means no such curve, though single readings can be large or run the other way. A potency beside an inconclusive call is a rough fit, not a confirmed value.
experiment: qHTS for Suppressors of FUS Proteinopathy: Primary screen using FUS-linked yeast assay; further: nearly all actives have a fitted effect of over 55% in size;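 on growth rescue (activation): plate controls were DMSO vehicle for no effect and reference control for full effect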; conditions: S. cerevisiae FUS-expressing, OD600, 24 h; Potency: growth rescue; growth rescue (activation): at 76.6 µM (top of the series)
Outline: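 Toxicity suppression screen in FUS-yeast. Cells induced with 2% galactose, starting OD 0.005, treated 24hr at 30C with compounds at multiple final concentrations; growth by OD600.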
Potency means the concentration at half of the fitted maximal effect; tags describe the fitted curve by direction and shape.

| Structure (SMILES) | Potency | growth rescue (activation) |
| --- | --- | --- |
| CCOC(=O)c1ccccc1NS(=O)(=O)c1c(-c2ccc(C)cc2)csc1C(=O)OC | inconclusive: 28.2 µM [activator, partial curve, poor fit] | – |
| COC(=O)c1ccc(CN(c2ccccc2OC)S(=O)(=O)c2cccs2)o1 | inconclusive: 50.1 µM [activator, single point] | – |
| Nc1c(C(=O)NC2CC2)sc2nc3c(c(-c4ccco4)c12)CC/C3=C/c1ccco1 | inconclusive: 10 µM [activator, full curve, poor fit] | – |
| Cc1ccc(CNC(=O)C23CN(Cc4ccccc4)CC2C(c2cccc([N+](=O)[O-])c2)=NO3)cc1 (stereo unspecified) | inconclusive: 50.1 µM [activator, single point] | – |
| Nc1[nH]c(C(=O)c2ccccc2)c(-c2ccc(Cl)cc2Cl)c1C(=O)NCCC1=CCCCC1 | – | inactive: 11.1% |
| CC(=O)N1c2ccc(S(=O)(=O)N3CCC(C(=O)NCc4ccc(Cl)cc4)CC3)cc2CC1C (stereo unspecified) | inconclusive: 50.1 µM [activator, single point] | – |
| COc1ccc(NC(=O)N(C)C[C@H]2Oc3c(NS(=O)(=O)c4ccc(OC)cc4)cccc3C(=O)N([C@H](C)CO)C[C@@H]2C)cc1 | inconclusive: 20 µM [activator, partial curve, poor fit] | – |
| CCOC(=O)c1ccccc1NS(=O)(=O)c1ccccc1 | – | inconclusive: 56.3% [activator] |
| O=S1(=O)c2ccc(N3CCCC3)cc2Oc2ccccc2CN1Cc1cn(Cc2cccc(F)c2)nn1 | inconclusive: 22.4 µM [activator, partial curve, poor fit] | – |
| CC(=O)C1=C(C)NC(SCC(=O)c2cc(Cl)ccc2Cl)=C(C#N)C1c1ccco1 (stereo unspecified) | active: 25.1 µM | – |
| Cc1nc(N2CCCC2)c2c(C(=O)N3CCN(c4cccc(Cl)c4)CC3)c(C)oc2n1 | inconclusive: 28.2 µM [activator, single point] | – |
| O=S1(=O)CC2c3ccccc3CN2CN1Cc1ccc(F)cc1 (stereo unspecified) | – | inactive: 14.1% |
| Cc1c(C(c2ccc(N(C)C)cc2)c2c(C)n(C)n(-c3ccccc3)c2=O)c(=O)n(-c2ccccc2)n1C | inconclusive: 28.2 µM [activator, single point] | – |
| Nc1ccc2c3c(cccc13)-c1ccccc1-2 | – | inactive: 17.1% |
| Cc1cc(C)cc(-n2ccn(CC(=O)Nc3ccccc3C(F)(F)F)c(=O)c2=O)c1 | – | inactive: 5.95% |
| CN(C)CCNC(=O)CCCN1C(=O)c2cccnc2Oc2ccc(Cl)cc21 | – | inactive: -10.7% |
| O=C(Nc1sc(-c2ccccc2)cc1C(=O)O)c1ccccc1 | – | inactive: 26.7% |
| Cc1c(Cc2ccccc2)c(=O)oc2cc(OCC(=O)NC(Cc3ccc(Cl)cc3)C(=O)O)ccc12 (stereo unspecified) | inconclusive: 31.6 µM [activator, single point] | – |
| C/C(=N\Nc1ccc(F)cc1F)c1ccc(N2CCOCC2)cc1 | – | inactive: -9.71% |
| Cc1ccc(NS(=O)(=O)c2ccc3[nH]c4c(c3c2)CCCCCC4)cc1Cl | active: 22.4 µM | – |
| Cc1c(C(=O)NCc2ccccc2)sc2nc3n(c(=O)c12)CCC3 | – | inactive: -21.4% |
| CCCCC(=O)NNC(=S)NC(=O)c1cccc([N+](=O)[O-])c1 | – | inactive: 8.83% |

| Structure (SMILES) | Potency | growth rescue (activation) |
| --- | --- | --- |
| O=Nc1c(-c2c(O)[nH]c3cc(Br)ccc23)[nH]c2ccccc12 | – | inactive: -30.9% |
| COC(=O)[C@]12C[C@H](CC(=O)NCc3cccc(C(F)(F)F)c3)C(=O)N(Cc3ccc4c(c3)OCO4)C1=C[C@H](C(C)C)O[C@@H]2C1CC1 | active: 8.91 µM | – |
| O=S1(=O)CC(N2CCN(CCO)CC2)CN1Cc1cn(Cc2ccc(F)cc2)nn1 (stereo unspecified) | – | inactive: -9.25% |
| CC(C)C1C(=O)N(Cc2cn(CCC3OCCO3)nn2)CCS(=O)(=O)N1Cc1ccc(-c2ccc(F)cc2Cl)cc1 (stereo unspecified) | inconclusive: 28.2 µM [activator, single point] | – |
| COc1cccc(-c2nn(-c3ccc(C)cc3)cc2C(=O)NCC(c2cccs2)N2CCOCC2)c1 (stereo unspecified) | inconclusive: 10 µM [activator, partial curve] | – |
| O=S(=O)(c1cccc(C(F)(F)F)c1)n1c(/C=C/c2ccccc2)nc2ccccc21 | – | inactive: -11.1% |
| CCOc1ccc(Nc2nc3ccccc3n3c(CC)nnc23)cc1 | – | inactive: -8.57% |
| COc1ccc(/C=C(/NC(=O)c2cccs2)C(=O)NCc2ccco2)cc1OC | inconclusive: 11.2 µM [activator, partial curve, poor fit] | – |
| CC(C)Oc1ccc(-c2csc(N3CCC(C(N)=O)CC3)n2)cc1 | inconclusive: 6.31 µM [activator, full curve, poor fit] | – |
| COc1ccc(CC(N)c2csc(NC(=O)Nc3ccccc3-c3ccccc3)n2)cc1 (stereo unspecified) | inconclusive: 50.1 µM [activator, single point] | – |
| C[C@@]12C(=O)N(c3cccc(F)c3)C(=O)N1[C@H](c1ccc(Cl)cc1)[C@@H]1C(=O)N(C3CCCCC3)C(=O)[C@@H]12 | inconclusive: 22.4 µM [activator, partial curve] | – |
| Cc1cccc(NC(=O)N(Cc2cc3cc(C)cc(C)c3[nH]c2=O)CC2COCCO2)c1 (stereo unspecified) | active: 35.5 µM | – |
| Cc1nc(C)c(C(=O)NCc2ccc(Cl)cc2)o1 | inconclusive: 39.8 µM [activator, partial curve, poor fit] | – |
| O=S1(=O)c2c(cccc2N2CC[C@@H](O)C2)O[C@H]2CCN1C2 | – | inactive: -19.8% |
| COc1ccc(N(CC(=O)Nc2ccccc2C)S(=O)(=O)c2ccccc2[N+](=O)[O-])c(OC)c1 | – | inactive: 29.1% |
| O=C(CSc1nnc2nnc3ccccc3n12)N1CCOCC1 | inconclusive: 11.2 µM [activator, single point] | – |
| Cc1cc(=O)nc2c3ccccc3n(C(C)C(=O)NCCC(C)C)n12 (stereo unspecified) | inconclusive: 12.6 µM [activator, partial curve, poor fit] | – |
| COCCCNCCCOc1ccc(Cl)cc1Br | – | inconclusive: 48.5% [activator] |
| Cc1ccc(NC(=O)c2cc(S(=O)(=O)N3CCCCC3)ccc2N2CCOCC2)cc1S(=O)(=O)N(C)C | inconclusive: 17.8 µM [activator, single point] | – |
| Nc1ccc(N=Nc2ccccc2)cc1[N+](=O)[O-] | – | inactive: 15.9% |
| CCN1C(=O)[C@@H]2[C@@H](c3ccc(SC4CCCCC4)c(OC)c3)N3CCC[C@@]3(C(=O)OC)[C@@H]2C1=O | inconclusive: 22.4 µM [activator, single point] | – |
| CCc1cc(N2CCOCC2)cc2c1[nH]c1ccccc12 | inconclusive: 50.1 µM [activator, partial curve, poor fit] | – |

| Structure (SMILES) | Potency | growth rescue (activation) |
| --- | --- | --- |
| Cc1ccc(C)c(C(=O)CCC(=O)Nc2ccc(N3CCN(C)CC3)cc2C)c1 | inconclusive: 31.6 µM [activator, partial curve] | – |
| O=C1C(NC(=O)N2c3ccccc3C=Cc3ccccc32)CCCCN1Cc1cccc(Cl)c1 (stereo unspecified) | inconclusive: 22.4 µM [activator, single point] | – |
| CC1CC(C)CN(S(=O)(=O)CCNC(=O)c2ccc3c(c2)OCO3)C1 (stereo unspecified) | – | inactive: 1.22% |
| COc1ccc(-n2c(SCC(=O)Nc3cc(C)c(NC(=O)c4ccccc4)cc3OC)nnc2-c2cccnc2)cc1 | inconclusive: 17.8 µM [activator, partial curve, poor fit] | – |
| COC(=O)c1sc(-c2ccc(C(C)(C)C)cc2)cc1NC(=O)CSCC(=O)O | active: 28.2 µM | – |
| CCOc1ccc(S(=O)(=O)N2CCCCC2)cc1NC(=O)CN1C(=O)NC(C)(c2ccccc2)C1=O (stereo unspecified) | inconclusive: 50.1 µM [activator, single point] | – |
| Cc1ccc(C23OCCN2CCn2nc4ccccc4c23)cc1 (stereo unspecified) | – | inactive: -23% |
| Cc1cc(C)c2cc(C(c3nnnn3CC3CCCO3)N3CCN4CCCC4C3)c(=O)[nH]c2c1 (stereo unspecified) | inconclusive: 14.1 µM [activator, partial curve, poor fit] | – |
| O=C(CSc1cccc[n+]1[O-])c1ccccc1Br | – | inactive: 11.8% |
| O=C(Cn1ccn(-c2ccc(F)cc2)c(=O)c1=O)NCCc1ccccc1 | – | inactive: 18% |
| CC(=O)N1c2ccc(S(=O)(=O)N3CCN(c4ccc(C)cc4C)CC3)cc2CC1C (stereo unspecified) | – | inactive: -10% |
| CC(C)CN1CN2CCc3ccccc3C2CS1(=O)=O (stereo unspecified) | – | inactive: -15.7% |
| CC1CCCC(C)N1C(=O)COC(=O)c1cccc(S(=O)(=O)N(C)c2ccccc2)c1 (stereo unspecified) | inconclusive: 28.2 µM [activator, partial curve] | – |
| O=C1NCCOC(=O)[C@@H](Cc2ccc(F)cc2)CC/C=C/C[C@@H]1CC(=O)N(CCO)Cc1ccccc1 | inconclusive: 12.6 µM [activator, partial curve, poor fit] | – |
| O=C1CCCC2=C1C(c1ccc(O)c(O)c1)Nc1ccc3ccccc3c12 (stereo unspecified) | inconclusive: 28.2 µM [activator, single point] | – |
| O=S1(=O)c2ccc(Br)cc2OC[C@H](Cc2ccccc2)N1Cc1cn(Cc2ccc(C(F)(F)F)cc2)nn1 | – | inactive: 1.52% |
| Cc1ccc(CNC(=O)c2ccc(-n3c(C)cc4c3CCCC4)cc2)cc1 | inconclusive: 35.5 µM [activator, single point] | – |
| O=c1[nH][nH]c2c1C(c1cccc(C(F)(F)F)c1)OC(CCc1ccccc1)C2 (stereo unspecified) | inconclusive: 35.5 µM [activator, single point] | – |
| CC1CCN(c2oc(-c3cccs3)nc2S(=O)(=O)c2ccc(Cl)cc2)CC1 | – | inactive: 18.8% |
| CC1=C(C(=O)OCc2ccccc2)C(c2ccc([N+](=O)[O-])cc2)NC(=O)N1CCCCCC(=O)O (stereo unspecified) | inconclusive: 17.8 µM [activator, single point] | – |
| COc1ccc2oc(-c3ccc(C)c(NC(=O)c4cccnc4)c3)nc2c1 | inconclusive: 20 µM [activator, partial curve, poor fit] | – |
| Oc1ccccc1N1CCN(c2ncnc3scc(-c4ccccc4)c23)CC1 | inconclusive: 14.1 µM [activator, partial curve] | – |

Source: PubChem BioAssay AID1347120 (National Center for Advancing Translational Sciences (NCATS), 2019)
